# Reference: the supplement of paper PMC11417369
# The list shows a part of the results.
# Test system: PF3D7_0420300 AP2 domain 1 (GST-tagged)
# Assay: gcPBM binding intensity (ln(normalized median fluorescence intensity)); higher = stronger DNA binding
# Outline: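 Binding of GST-tagged P. falciparum DNA-binding domains, expressed in E. coli and used at about 25 μg on average, was carried out for 1 h in 1× PBS containing 1% milk, 0.2 mg/ml BSA, 0.5% salmon testes DNA and 0.03% Triton X-100. The target was an Agilent 4 × 180k array of primer-extended double-stranded 36-bp intergenic genomic probes plus negative controls, read with Alexa488 anti-GST antibody at 488 nm. Binding intensity is the highest Masliner-normalised natural-log median intensity across replicate spots of either probe orientation.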
row,Sequence,gcPBM binding intensity (ln)
1,TATATATATATAATGTGTACATACTAAATAGAGGAC [XGTACX_site4153],9.84
2,GAAATGTATAAATCCATACACACATAAATTTTAATA [CACACA_site2364],9.47
3,TAAATATAAAAATGCACACACACAAAAAAAAAAAAA [CACACA_site895],10
4,AAAAAAATCTATATTACACACATATATACCTATATA [CACACA_site7464],9.44
5,TACATTGTATACATATGTACACATATATATATATAT [XGTACX_site6174],9.42
6,TATTTATGTTATAATTGTACAATAAACAAATTTTTT [XGTACX_site5306],8.94
7,ATTATACATTTTAGATGTACATATTTTAAATTTAAT [XGTACX_site5174],9.03
8,AGAAATTAATCGAAGTGTACATATAAACATACATAT [XGTACX_site5518],9.45
9,ATATTTTGTATAATCACACACACTATTCTTAAATAG [CACACA_site7270],9.6
10,AACAAACAAACAAATATACACACTTTTGTATAAAGT [CACACA_site3509],9.77
11,CCCACATAAAAAAATAAACACACATATGTATATATA [CACACA_site9040],9.63
12,TAATCAATTCAATATTGTACGATATTTACCTTTAAA [XGTACX_site4678],9.15
13,AAATGGGCTTATTTATGTACTTAAATATATCTACCC [XGTACX_site3823],9.11
14,TACATATATATATACACACATACATATATATACGCA [CACACA_site792],9.52
15,AACCTCGTGTAATATGCATGTTCCCTTCAAAGTTTT [TGCATGCA_site459],9.34
16,TATTTCATCTTATTTTAGGAAAAACTAATATATAAG [CACACA_negctrl_site1823],8.74
17,TATTCGTCTTTTTTCTCACACACCCTTTTTATTAAA [CACACA_site2508],9.69
18,AAATTTAGGAACATTATATATATATATATATATATA [CACACA_negctrl_site862],9
19,TAAAAATAAAGAAAATGTACATAAATAATAATACAT [XGTACX_site2278],9.52
20,GAACATTTGAAATATGCACACATGTATAAACCTACA [CACACA_site2654],9.5
21,CAAAAAAAGGAAAAGATACACACCGTAAATTAAAAT [CACACA_site3612],9.81
22,AGCAGGATTAAAAAAAGTACAAGAATTAATATTTAA [XGTACX_site3413],9.07

row,Sequence,gcPBM binding intensity (ln)
1,AATTATTATCCCCTCACACACAAAAATAAAAAGAAT [CACACA_site2885],9.84
2,ATTTTTTATTGTTATAAAAAAAAAATTAAACAATTA [CACACA_negctrl_site1077],8.7
3,TATATCTATAATATTACACACATATATTTATATTTT [CACACA_site7595],9.48
4,AAAGAAAATAACAAAATTTTGAAAACATCACATTCG [CACACA_negctrl_site89],9.44
5,AAATTAAAGGCATAAAAGAAAATATTTAATAAAAAA [CACACA_negctrl_site1689],9.18
6,TTTTTTTTAATTGTGATACGTATATTATTTAATGAT [CACACA_negctrl_site38],9.26
7,ACCAGTTCTTAATACAAATATGTACATATATATATA [GTGCAC_negctrl_site56],9.27
8,ATATATAATAAACAGGTGCATTGTTTTATTTTGTAT,9.41
9,AAAATAAAAAATTAATGTACTTAGAATTGTCACTAA [XGTACX_site1346],9.15
10,TTTTGTAAATATATATGTACATATATATATATATAT [XGTACX_site5803],9.05
11,ACCTATTTATAATAGTGTACGTACAAATTTGTTTAC [XGTACX_site8176],9.19
12,TTTTTCATGTTTATTAGTACATATATTAAGAATGGA [XGTACX_site3493],8.95
13,AATTTGTTGAAACACACACACACATACATATATATA [CACACA_site2287],10.1
14,TAAAATAATAAACAGAAGAAATCATTCATATAAAAA [XGTACX_negctrl_site502],9.3
15,ATAAATATATGATAAAGTACATATTTATATAATAAA [XGTACX_site7263],9.09
16,TGATATTATATATATACACACATGTATGTATATATA [CACACA_site1364],9.33
17,ATATTTATTTATAATTGTACTAATAATATATTTTAA [XGTACX_site587],9.05
18,ATGTATCTATATATATGTACACATATTTTAATTAAA [XGTACX_site3673],9.13
19,TGTGCATAATTTTGTGCACACCACGCTAATAATTTT [CACACA_site2915],9.15
20,GGAATAAATAATATTATACACACGTATATTATTATA [CACACA_site2435],9.23
21,AAGCTTTCATAAAGATGTACTTTTTAAAAATAATCT [XGTACX_site5725],8.78
22,TACAACAAGTAATGGTGTACATTATATTATGTAATA [XGTACX_site1194],9.15
